# In the supplement of paper PMC3334620:
# Whole data set: some 33,000 sequences, median “E-score (-0.5 to 0.5)” near -0.011, cut for the highest 2% near 0.28. This is one part of the list.
# Biological target: T1, Gcr1 (UniProt P07261)
# T1 sequence: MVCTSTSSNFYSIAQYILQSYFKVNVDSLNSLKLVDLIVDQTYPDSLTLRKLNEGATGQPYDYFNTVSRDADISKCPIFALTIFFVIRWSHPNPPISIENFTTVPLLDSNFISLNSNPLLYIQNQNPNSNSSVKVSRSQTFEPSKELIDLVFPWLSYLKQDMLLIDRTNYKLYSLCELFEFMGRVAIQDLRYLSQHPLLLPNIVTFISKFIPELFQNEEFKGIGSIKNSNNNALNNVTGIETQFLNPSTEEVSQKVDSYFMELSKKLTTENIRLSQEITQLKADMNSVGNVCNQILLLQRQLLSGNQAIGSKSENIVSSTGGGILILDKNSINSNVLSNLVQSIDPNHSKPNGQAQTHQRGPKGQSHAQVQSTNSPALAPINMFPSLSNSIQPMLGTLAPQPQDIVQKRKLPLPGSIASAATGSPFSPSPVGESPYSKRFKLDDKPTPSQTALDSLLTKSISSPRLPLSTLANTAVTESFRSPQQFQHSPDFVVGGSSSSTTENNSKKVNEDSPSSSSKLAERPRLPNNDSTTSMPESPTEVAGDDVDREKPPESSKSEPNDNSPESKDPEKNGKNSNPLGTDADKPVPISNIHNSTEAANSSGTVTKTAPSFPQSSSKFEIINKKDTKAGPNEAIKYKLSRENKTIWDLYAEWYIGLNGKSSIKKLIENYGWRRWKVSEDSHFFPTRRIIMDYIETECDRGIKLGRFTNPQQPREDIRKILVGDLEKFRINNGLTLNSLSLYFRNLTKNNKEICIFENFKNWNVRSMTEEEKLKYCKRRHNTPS
# Assay: PBM E-score (8-mer binding enrichment) (E-score (-0.5 to 0.5)); higher = stronger / more preferred TF binding; most listed sequences are background and not binding sites
# Settings: protein concentration: 100 nM; construct: GST-full length
# How it was run: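 Universal all-10-mer Agilent arrays, double-stranded by primer extension on fresh or once-stripped slides, were probed with about 100-200 nM GST-tagged yeast transcription factors made by PURExpress. Fluorescent anti-GST detected bound protein, and masliner normalised the scans. E-scores from the Universal PBM Analysis Suite were given to each ungapped eight-base word pooled with its reverse complement.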
row,Sequence,PBM E-score
1,GGCGCCAA,0.377
2,CGTCAGTC,-0.228
3,AGTTGAGA,0.0303
4,GCTTGCTA,-0.0698
5,TATACTAA,-0.109
6,ATTTACGC,0.129
7,ATATTCGG,0.24
8,GGCGGCCA,0.241
9,CATGCTAC,-0.123
10,GATAGCCA,-0.0815
11,AGGCCCAG,-0.134
12,CTGATAAA,0.159
13,ACCGAGTC,-0.306
14,ACCGACAG,-0.0165
15,ACTATATA,-0.0114
16,CCCGACCC,-0.0484
17,TAACAGTA,-0.051
18,CACAGGAG,0.0888
19,CTCGAACC,-0.108
20,CTGTGTGC,-0.141
21,CGCTACGA,-0.181
22,CGTGCCCC,-0.199
23,ATGCGTCC,-0.113
24,GGACGCAA,0.184
25,ATAGTAAC,0.0697

row,Sequence,PBM E-score
1,GCGAGCTA,-0.12
2,AGAGTAAA,-0.0626
3,ACGTTACT,-0.166
4,TCAAAGCA,0.0441
5,AACACAAA,0.0128
6,CATTGTCG,-0.205
7,ACAGTCAA,-0.113
8,AAATTCCT,0.0803
9,CGTGTCAG,0.00453
10,CAGGCTAG,-0.336
11,ACGCACGA,0.0691
12,ATAGTTCG,-0.0128
13,CTGTGAAA,0.0928
14,ACGACCTC,0.0804
15,AGGTATTG,0.0481
16,GAACACTA,-0.192
17,ATTGTTTA,-0.0373
18,CTTGTTCC,0.0403
19,CATTGTAG,0.101
20,GAAACTAC,0.0478
21,ATATACAT,0.165
22,CCTCCAGC,-0.201
23,GCTACGAC,-0.107
24,AGCTGCTA,0.226
25,CACTAATC,0.0878

row,Sequence,PBM E-score
1,CATTTTTA,0.0158
2,CACTTCTG,-0.0677
3,CATGAGTC,-0.011
4,TAGAGCCA,-0.119
5,AATGAATC,-0.0524
6,GCTACACA,-0.124
7,CTGGAAAC,0.196
8,ACCGGCAG,0.159
9,CAGCGCGC,0.0842
10,AACGACTC,0.0258
11,GACGTTCA,-0.193
12,GCGGCCCA,-0.136
13,TGCTTTAA,0.00539
14,CTATTCCC,-0.0625
15,ATTGGGAA,0.152
16,GGAAAACC,-0.0228
17,GCCCGTCA,0.0663
18,CTACATTC,0.0281
19,GTTCTTGA,0.0128
20,GCGTCGAC,-0.115
21,CATCCATC,-0.171
22,CACGAATC,0.131
23,CGTATACA,0.159
24,ATCGTTCG,0.11
25,GAGCCCTA,-0.0321

row,Sequence,PBM E-score
1,ATTAGTAA,0.15
2,AATCCTGA,0.147
3,CATGTTCA,-0.103
4,CCCTTACA,-0.0411
5,CCGAGTGC,0.00066
6,ACTTAGCC,-0.209
7,CGCTGTTA,-0.0384
8,AATGTGTG,-0.0856
9,ACATATCT,-0.0253
10,CTTTTTGA,0.115
11,CCTTGACA,-0.0879
12,AGTGGGTG,0.137
13,AACCCTGG,0.0629
14,AGCAGGAG,-0.13
15,ATTGTGTA,0.0943
16,AGAGTCAG,-0.0831
17,CCACCACA,0.0143
18,AACAAAGG,-0.238
19,CCGACTTA,0.0789
20,GTGTCGAA,-0.132
21,AGATGATA,0.0452
22,AACCTAAA,0.294
23,AAACAGCT,0.0222
24,GAAGCAGA,0.11
25,GAAGCCAC,0.417

row,Sequence,PBM E-score
1,GATGAATA,-0.112
2,AGGTACGA,0.147
3,CCCGTCAA,-0.0554
4,AGTAGACA,-0.0628
5,CATTGCCG,-0.2
6,CACACTTC,-0.069
7,AAGACCGG,0.0315
8,AGGGTTAG,-0.261
9,CGGACTCC,0.222
10,GTCGTCCA,0.0299
11,ACATATGA,-0.147
12,AACCTTGC,-0.0446
13,CTTTCAAC,0.0703
14,ACCCTTAC,-0.11
15,CGATAAAA,0.14
16,CCTCAGGC,-0.0279
17,CAACTGCA,0.0151
18,AAATACAC,0.149
19,GCGGAACA,-0.172
20,GGGCGACC,0.0839
21,CGGTGAAC,-0.0619
22,ACGTCACA,-0.214
23,CAGCTAGG,-0.113
24,CACGTCTG,-0.1
25,CGATATAG,-0.0106

row,Sequence,PBM E-score
1,CTTGAGGA,-0.00884
2,ATTATGAC,0.00022
3,CGGGACCC,0.306
4,AGTGCAAA,0.0141
5,ACCCGTCA,-0.186
6,AGCGCCCC,0.153
7,CTTTGTTA,0.107
8,CACGCTCG,-0.199
9,CAAATCGG,0.0561
10,CAACATAA,0.0513
11,GTGAGCAC,-0.125
12,CAGGTGCA,-0.0654
13,CACGATCG,-0.114
14,AATGGGAC,0.0245
15,ATGCATGG,-0.0167
16,TATATATA,0.103
17,AGGGAATA,0.0244
18,CTCGTCTC,-0.00497
19,ACAAGGAC,-0.0635
20,CGTTATTA,0.044
21,CAAGCATC,0.112
22,GTAAGTTA,-0.0605
23,ATCTGGTA,0.258
24,ACGTACGC,-0.0608
25,AGACCTCC,-0.282

row,Sequence,PBM E-score
1,ATGTTCAC,0.0132
2,AGGCGCTG,0.213
3,CCGACATC,0.243
4,GAAGTGGC,0.115
5,CCTACGGA,-0.115
6,GCCGTTTA,-0.0504
7,CGTTTGTA,0.0365
8,CTCTTCAG,-0.0373
9,AGTACTAG,0.121
10,TGGAAAAA,-0.0241
11,CGACCAAG,-0.197
12,AGAACAGA,-0.263
13,CTTTTGAC,-0.0271
14,CATGCTCC,-0.144
15,AGTGCGGG,-0.117
16,GATGTCAA,-0.0463
17,ATTCCAGA,0.286
18,CATGGGGA,0.198
19,GAGAATCA,-0.267
20,TATCCGCA,0.0884
21,CCGGATTA,-0.0163
22,AGCGGACC,-0.0147
